Reference: PubChem BioAssay AID651820 (National Center for Advancing Translational Sciences (NCATS), 2012)
Several values for one entry are separate records, joined by “and”; a condition that tells them apart may be missing. Identical values can stand only once. Screen size: about 340,000 compounds; about 12,000 (3.5%) were called active. Inconclusive results, whose numbers are uncertain, are shown with a selection of clear calls. Calls come from the whole dose curve; as a rule, active = well fitted inhibition curve with a large enough effect; inconclusive = small, poorly fitted or top-dose-only effect, or another doubt; inactive = no such curve, though single readings can be large or run the other way. Potencies of inconclusive entries are doubtful fits and often do not repeat. The source holds several records for some structures; these can differ, active in one and inactive in another.

Assay: qHTS Assay for Inhibitors of Hepatitis C Virus (HCV)
Conditions: Huh7.5.1 HCVcc-Cre (HCVcc is cell-culture hepatitis C virus) infection, luciferase reporter, 44 h; activity change, negative = inhibition: at 41.8 µM (top of the series)
How it was run: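 1,000 cells/well; 4 h culture; + compound; + HCVcc-Cre (~0.5 moi); 44 h; luciferase substrate, RT 15 min; read 15 sec.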
% is set by controls: 0 for no effect and ±100 for the full control effect; potency is the fitted concentration of half-maximal effect; tags give direction and shape of the fitted curve.

Compound	Potency	activity change, negative = inhibition
CC(C)(Oc1ccc(Cl)cc1)C(=O)NC1CCN(Cc2ccccc2)CC1	inconclusive: 10 µM [inhibitor, partial curve]	–
CC(Cc1ccccc1)NC(=O)NC(C)Cc1ccccc1 (stereo unspecified)	–	inactive: -9.88%
CS(=O)(=O)c1ccc(Cl)c(C(=O)NC2CCSc3ccccc32)c1 (stereo unspecified)	–	inactive: 0.893%
Cc1ccccc1OC1C(=O)N(CC2CCCO2)C1c1ccc2c(c1)OCO2 (stereo unspecified)	inconclusive: 31.6 µM [inhibitor, single point]	–
C=CCOc1c(Br)cc(/C=C2\SC(=Nc3ccccc3)NC2=O)cc1OC	inconclusive: 3.55 µM [inhibitor, partial curve]	–
Cc1cccc(NC(=O)CSc2nncn2-c2ccccn2)c1	inconclusive: 0.501 µM [inhibitor, partial curve, poor fit]	–
CCOC(=O)/C(C)=N/Nc1nc(-c2ccc(NC(C)=O)cc2)cs1	inconclusive: 2.82 µM [inhibitor, partial curve]	–
Fc1ccc(CNCc2ccc3c(c2)OCO3)cc1	–	inactive: -1.07%
NNC(=O)/C(=C\c1ccc(Br)cc1)NC(=O)c1cccs1	inconclusive: 5.62 µM [inhibitor, single point]	–
N#C/C(=C\c1ccc(O)cc1)C(=O)O	active: 1.12 µM	–
CC(C)C[C@H](NC(=O)[C@@H]1Cc2c([nH]c3ccccc23)C2c3ccccc3C(=O)N21)C(=O)NCC1CCCO1 (stereo partly specified)	inconclusive: 10 µM [inhibitor, partial curve]	–
Cc1cc(C(=O)Nc2ccccc2N2CCOCC2)c(C)o1	inconclusive: 31.6 µM [inhibitor, single point]	–
CCOC(=O)c1c(NC(=O)CN2CCOCC2)sc2c1CCCC2	inconclusive: 3.16 µM [inhibitor, partial curve]	–
C=C1c2cc3c(cc2NC(=S)N1Cc1ccccc1)OCO3	–	inconclusive: -72.1% [inhibitor]
CC1=Nc2cc(C(=O)NCCN3CCOCC3)ccc2Sc2c(C)ccc(C)c21	–	inactive: -3.95%
CCCCn1c(SCC(N)=O)nnc1-c1ccco1	–	inactive: 7.95%
Cc1cccc(C(=O)NCC(C)NC(=O)c2cccc(C)c2)c1 (stereo unspecified)	–	inactive: 0.339%
COc1ccccc1NC(=O)/C(=C/c1cccc([N+](=O)[O-])c1)c1ccccc1	inconclusive: 31.6 µM [inhibitor, single point]	–
O=C(OCC(=O)N1CCN(C(=O)c2ccco2)CC1)c1ccccc1NCCO	–	inactive: 14.8%
COc1ccccc1NC(=O)COC(=O)c1cc2ccccc2cc1O	–	inactive: 6.46%
CCOc1ccc(Br)cc1S(=O)(=O)Nc1ccc(S(=O)(=O)Nc2cc(C)on2)cc1	–	inactive: 4.99%
C(=N\Nc1ccccc1)/c1ccc(N2CCOCC2)cc1	inconclusive: 12.6 µM [inhibitor, partial curve, poor fit]	–
Cc1ccc(N(C)C(=O)CCS(=O)(=O)c2cc3c(cc2Cl)NC(=O)CO3)cc1	–	inactive: -18.4%
CCc1cc2c(COC(=O)CCNS(=O)(=O)c3cccc(C(F)(F)F)c3)cc(=O)oc2cc1O	inconclusive: 12.6 µM [inhibitor, single point]	–

Compound	Potency	activity change, negative = inhibition
C#CCOc1ccc(/C=C2\SC(=S)N(Cc3cccnc3)C2=O)cc1	–	inactive: -7.96%
Cc1cc(NC(=O)NC(=O)c2ccccc2NC(=O)CN(C)C)ccc1Oc1ncc(Br)cn1	inconclusive: 2.51 µM [inhibitor, partial curve]	–
O=C(/C=C/c1ccccc1)Nc1cccc(C(=O)N2CCCCC2)c1	inconclusive: 3.16 µM [inhibitor, single point]	–
CC(C)Cn1c(N)c(C(=O)COC(=O)/C=C/c2ccccc2)c(=O)n(C)c1=O	active: 7.08 µM	–
CC(C)c1ccc(Nc2nc(NCc3ccco3)nc(N3CCOCC3)n2)cc1	active: 10 µM	–
CN1/C(=C/C(=O)C2CCC2)Sc2ccccc21	inconclusive: 11.2 µM [inhibitor, partial curve]	–
Cc1cccc(C(=O)NCC(=O)N2CCN(S(=O)(=O)c3cc(C)ccc3C)CC2)c1	–	inactive: -1.1%
COc1ccccc1C(=O)NC(=Nc1nc2ccccc2o1)NC(=O)c1ccccc1OC	inconclusive: 316 nM [inhibitor, full curve, poor fit] and inconclusive: 10 µM [inhibitor, partial curve]	–
Cc1[nH]c2ccccc2c1/C=C/c1nc2ccccc2c(=O)n1-c1ccc([N+](=O)[O-])cc1	inconclusive: 0.562 µM [inhibitor, full curve, poor fit]	–
Cc1ccc(-c2nc(CS(=O)(=O)CC(=O)NCCN3CCCC3)c(C)o2)cc1	inconclusive: 2.82 µM [inhibitor, partial curve]	–
Cc1nn(Cc2ccc(Cl)cc2Cl)c(C)c1NC(=O)NC12CC3CC(CC(C3)C1)C2	inconclusive: 11.2 µM [inhibitor, single point]	–
COc1ccc(CNn2c(-c3cccc(C)c3)nc3ccccc3c2=O)cc1OC	inconclusive: 0.501 µM [inhibitor, full curve, poor fit]	–
Cc1ccccc1-c1noc(CNC(=O)c2ccco2)n1	–	inactive: -7.5%
O=C(OCC#CCSc1nnc(-c2ccc(Br)cc2)o1)c1ccco1	inconclusive: 31.6 µM [inhibitor, single point]	–
CCN1C(=O)CC(N2CCN(c3ccc(C(=O)c4ccccc4)cc3)CC2)C1=O (stereo unspecified)	inconclusive: 14.1 µM [inhibitor, single point]	–
COc1ccc(NC(=O)c2ccc(S(=O)(=O)N3CCCCC3)cc2)c(OC)c1	–	inactive: -11.6%
COc1c(C(=O)Nc2ccccc2N2CCOCC2)cc2ccccc2c1Br	inconclusive: 15.8 µM [inhibitor, partial curve]	–
CSCCC(NC(=O)/C(=C/c1ccco1)NC(=O)c1ccco1)C(=O)O (stereo unspecified)	–	inconclusive: -67.4% [inhibitor]
O=C1C(Cl)=C(NCC2CCCO2)C(=O)N1CCc1ccccc1 (stereo unspecified)	inconclusive: 31.6 µM [inhibitor, single point]	–
CCOC(=O)C1CCCN(c2c(Nc3cccc(C)c3)c(=O)c2=O)C1 (stereo unspecified)	–	inactive: 3%
CCN(CC)c1ccc(-n2cc3c(=O)n(C)c(=O)n(C)c3c2)cc1	inconclusive: 31.6 µM [inhibitor, single point]	–
Cc1cccc(N2CCN(C(=O)C3CCN(c4ncnc5c4nc4n5CCCCC4)CC3)CC2)c1C	active: 7.08 µM	–
COc1ccc(C(=O)NCCCSC)cc1OC1CCN(C(C)C)CC1	–	inactive: 5.63%
O=C(OC1CCOC1=O)c1ccccc1C(=O)c1ccc(Cl)c([N+](=O)[O-])c1 (stereo unspecified)	active: 11.2 µM	–

Compound	Potency	activity change, negative = inhibition
C=CC(=O)N1c2ccccc2Sc2ccc(NC(=O)OCC)cc21	inconclusive: 31.6 µM [inhibitor, single point]	–
COc1ccc(S(=O)(=O)NCc2ccco2)cc1-c1nnc2c3ccccc3c(C)nn12	inactive	–
CCN(CC(=O)Nc1ccc2c(c1)OCCO2)S(=O)(=O)c1ccccc1	–	inactive: -4.16%
O=C(Nc1cccc2ccccc12)OC1C=CS(=O)(=O)C1 (stereo unspecified)	inconclusive: 31.6 µM [inhibitor, single point]	–
O=C(/C=C/c1cn(-c2ccccc2)nc1-c1ccc2c(c1)OCCO2)NCCCN1CCOCC1	inconclusive: 10 µM [inhibitor, partial curve, poor fit]	–
O=C(c1ccc(Cl)cc1)C1CCCN(Cc2ccc3nonc3c2)C1 (stereo unspecified)	active: 22.4 µM	–
O=C(Nc1cccc(S(=O)(=O)NC2=NCCC2)c1)c1cc(-c2ccccn2)nc2ccccc12	inconclusive: 25.1 µM [inhibitor, single point]	–
CN(Cc1nccs1)C(=O)C1CCC(=O)N(CCCc2ccccc2)C1 (stereo unspecified)	–	inactive: 11.8%
CCN(CC(=O)NCc1cccs1)c1nnnn1-c1ccccc1	inconclusive: 31.6 µM [inhibitor, single point]	–
CCC(CC)COC(=O)C1=C(C)NC(=O)NC1c1ccc(N(C)C)cc1 (stereo unspecified)	inconclusive: 10 µM [inhibitor, partial curve]	–
Clc1ccc(-c2noc(CSc3nnc(Cc4cccs4)n3-c3ccccc3)n2)cc1	inconclusive: 11.2 µM [inhibitor, single point]	–
COc1cc(C(=O)N(C)CC2CCN(CCc3cccc(C(F)(F)F)c3)CC2)ccc1C	inconclusive: 14.1 µM [inhibitor, single point]	–
COc1ccc(-c2ccc([C@H]3[C@@H]4C=CCC[C@@]4(C)C(=O)N3Cc3ccccc3)c(F)c2)cc1OC	inconclusive: 28.2 µM [inhibitor, single point]	–
CCCCn1cnc2cc(C)c(C)cc21	inconclusive: 5.62 µM [inhibitor, single point]	–
CCCCOc1ccc(S(N)(=O)=O)cc1	–	inactive: 12%
Cc1ccc(NC(=O)C2CCN(c3cnccn3)CC2)cc1	–	inactive: -1.66%
Cc1ccc(NS(=O)(=O)c2cccc(C(=O)N/N=C/c3ccc4c(c3)OCCO4)c2)c(C)c1	inconclusive: 2 µM [inhibitor, full curve, poor fit]	–
Cc1cc2c(NCc3ccccc3)ncnc2s1	active: 7.94 µM	–
COc1ccc(C(=O)Nc2ccc(NC(=O)CSc3nnc(-c4ccncc4)n3C)cc2)cc1	–	inactive: -15.2%
CC1(C)CC(=O)C2=C(C1)Oc1nc3ccccc3cc1C2C(C#N)C#N (stereo unspecified)	inconclusive: 14.1 µM [inhibitor, partial curve]	–
COc1cccc(C(=O)N2CCN(Cc3cc(Br)ccc3OC)CC2)c1	inconclusive: 11.2 µM [inhibitor, partial curve, poor fit]	–
Cc1ccc(C(=O)N/N=C/c2cc(Br)ccc2O)cn1	inconclusive: 22.4 µM [inhibitor, partial curve]	–
Oc1ccc(C2Nc3cccc4cccc(c34)N2)c(O)c1	–	inactive: 1.44%
